# Measurements: PMC4336329 (PLoS ONE, 2015)
# In all, about 310,000 compounds went through this assay and about 14,000 (4.5%) showed an effect of 50% or more. The effect is printed as a negative number. Some of the results follow.
# Molecular target: human ether-à-go-go-related gene (hERG) potassium channel (human, UniProt Q12809)
# Experiment: primary screen, population patch clamp on CHO cells stably expressing hERG
# 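Also: peak tail current of the secondary pulse compared with the same well before compound.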
# Sequence of human ether-à-go-go-related gene (hERG) potassium channel (Q12809 whole entry, looked up): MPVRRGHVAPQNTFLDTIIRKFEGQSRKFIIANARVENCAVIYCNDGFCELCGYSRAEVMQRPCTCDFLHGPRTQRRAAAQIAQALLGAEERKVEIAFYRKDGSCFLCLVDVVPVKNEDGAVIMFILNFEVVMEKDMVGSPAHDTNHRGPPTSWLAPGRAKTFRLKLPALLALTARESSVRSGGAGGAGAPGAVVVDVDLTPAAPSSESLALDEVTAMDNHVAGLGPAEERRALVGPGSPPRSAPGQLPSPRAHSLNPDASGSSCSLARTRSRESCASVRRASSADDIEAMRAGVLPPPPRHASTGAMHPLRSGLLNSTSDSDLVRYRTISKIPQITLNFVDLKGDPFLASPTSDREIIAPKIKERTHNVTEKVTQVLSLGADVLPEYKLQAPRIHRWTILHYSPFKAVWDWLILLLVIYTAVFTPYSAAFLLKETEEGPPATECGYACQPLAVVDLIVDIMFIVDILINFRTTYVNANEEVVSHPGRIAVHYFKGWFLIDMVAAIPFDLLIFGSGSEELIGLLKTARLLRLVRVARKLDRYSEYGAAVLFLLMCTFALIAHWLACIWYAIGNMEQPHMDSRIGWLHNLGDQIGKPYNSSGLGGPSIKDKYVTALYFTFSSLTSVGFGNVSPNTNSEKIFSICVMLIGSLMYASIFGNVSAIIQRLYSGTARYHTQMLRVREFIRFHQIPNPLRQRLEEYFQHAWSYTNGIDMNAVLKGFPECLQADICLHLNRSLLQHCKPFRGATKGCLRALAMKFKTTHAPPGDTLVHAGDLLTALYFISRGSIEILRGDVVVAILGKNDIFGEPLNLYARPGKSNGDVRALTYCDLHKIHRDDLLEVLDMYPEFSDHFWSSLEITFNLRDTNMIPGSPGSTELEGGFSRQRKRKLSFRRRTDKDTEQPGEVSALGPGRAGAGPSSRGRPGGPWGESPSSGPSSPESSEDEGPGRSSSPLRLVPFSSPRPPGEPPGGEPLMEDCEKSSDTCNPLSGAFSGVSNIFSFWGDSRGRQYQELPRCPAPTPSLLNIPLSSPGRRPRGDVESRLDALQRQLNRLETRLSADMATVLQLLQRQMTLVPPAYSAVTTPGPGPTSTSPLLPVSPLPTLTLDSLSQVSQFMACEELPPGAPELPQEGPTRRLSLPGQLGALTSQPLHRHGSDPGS
row,SMILES,"hERG current change (%, negative = inhibition) at 10uM"
1,O=C1c2oc3ccc(Br)cc3c(=O)c2C(c2cccc(F)c2)N1CCO (centres unmarked),-1.34%
2,CNc1nc(-c2ccc(Cl)cc2)cs1,1.67%
3,CC(C)(C)c1ccc(C2C(C(=O)c3ccco3)=C(O)C(=O)N2CC2CCCO2)cc1 (centres unmarked),4.74%
4,OCCC1CN(Cc2cc(F)ccc2-n2cccn2)CCN1Cc1ccc(F)cc1 (centres unmarked),-62.5%
5,CC(=O)c1cccc(NC(=O)c2ccc3c(=O)n4c(nc3c2)CCCCC4)c1,-75.5%
6,CC(=O)Nc1ccc(N2CCN(Cc3ccccc3)CC2)cc1,-14.6%
7,CC(=O)c1ccc(OCC(O)CN2CCN(Cc3ccc4c(c3)OCO4)CC2)cc1 (centres unmarked),-34.8%
8,COCCNC(=S)NNC(=O)c1ccco1,-6.88%
9,CC(C)c1ccc(NC(=O)C(c2ccccc2)N2CCN(C(=O)c3ccco3)CC2)cc1 (centres unmarked),-69.8%
10,CCN1CCc2nc(NC(=O)c3ccc4c(c3)OCCO4)sc2C1,-7.45%
11,CCN(CC)C(=O)c1ccc(S(=O)(=O)c2ccccc2)cc1,17.5%
12,Cc1ccnc(NS(=O)(=O)c2ccc(NC(=O)CN3C(=O)CCC3=O)cc2)n1,10.2%
13,COc1ccc(C(=O)CCC(=O)NCc2cc(OC)cc(OC)c2)cc1,23.5%
14,CCN(CC)C(=O)CN(c1cccc(OC)c1)S(=O)(=O)c1ccc(C)cc1,-11%
15,Cc1[nH]c2ccccc2c1C(=O)C(=O)NCCC1=CCCCC1,13.1%
16,NC(=S)N/N=C/c1ccc2c(c1)OCCO2,16.5%
17,O=C(Cn1cnc2c(oc3nc4c(cc32)CCCC4)c1=O)Nc1cccc(Cl)c1,16.2%
18,C=CCOc1ccccc1CN1CCSCC1,-11.2%
19,CCCN(CCC)C(=O)C1CCN(c2ccc(S(=O)(=O)N3CCOCC3)cc2[N+](=O)[O-])CC1,-22.4%

row,SMILES,"hERG current change (%, negative = inhibition) at 10uM"
1,CSc1ccccc1C(=O)C1CCCN(C(=O)CCc2cccnc2)C1 (centres unmarked),1.47%
2,Cc1ccc(C(=O)NCc2ccco2)cc1,12.4%
3,Cn1cc([N+](=O)[O-])c(C(=O)N/N=C/c2ccccc2)n1,4.71%
4,O=C(O)C(F)=C1c2ccccc2-c2ccccc21,12.4%
5,COc1ccc(/C=C2\C(=O)ON=C2c2ccccc2)cc1OC,1.35%
6,Cc1nc(Nc2ccc(S(=O)(=O)N3CCCC3)cc2)c2nnn(Cc3ccccc3)c2n1,27.6%
7,Cc1c(Cl)c([N+](=O)[O-])nn1CC(=O)Nc1ccc2c(c1)OCO2,18.4%
8,CCn1cc(S(=O)(=O)CC(=O)NC2CCCCC2)c2ccccc21,7.22%
9,CCOC(=O)CSc1ccc2nnc(-c3cccnc3)n2n1,-31%
10,COc1ccc(-c2nnc(SCC(=O)Nc3ccccc3OC)o2)cc1,13.6%
11,CCn1ccnc1CNC(=O)CC1C(=O)NCCN1CC(c1ccccc1)c1ccccc1 (centres unmarked),20.5%
12,CCCCn1c(N)c(N(CC)C(=O)c2cccc(S(=O)(=O)N3CCN(C)CC3)c2)c(=O)[nH]c1=O,14.3%
13,COc1ccc2c(c1)c(/C=N/Nc1nc3ccccc3[nH]1)c(C)n2C,-9.63%
14,Cc1ccc(S(=O)(=O)N2CCOC23CCN(C(=O)C(=O)NCCC(C)C)CC3)cc1,-17.2%
15,Cc1cccc(NC(=O)CCc2nnc3ccc(NCc4ccco4)nn23)n1,6.78%
16,CCOc1ccc(C(=S)N2CCOCC2)cc1,-13.2%
17,Cc1cc(C(=O)N/N=C/c2ccc(-c3ccccc3Cl)o2)n[nH]1,-0.4%
18,COC(=O)c1cc(N=CC2=C(O)CC(C)(C)CC2=O)cc(C(=O)OC)c1,-16.3%
19,O=C(COC(=O)c1ccc(Cl)c(Cl)c1)NC1CCCC1,21.9%

row,SMILES,"hERG current change (%, negative = inhibition) at 10uM"
1,Cc1ccc(NC(=O)CC(=O)c2ccc([N+](=O)[O-])cc2)cc1S(=O)(=O)Nc1cccc(Cl)c1,12.4%
2,Cc1ccc(Nc2nc3nonc3[nH]c2=O)cc1Cl,27.1%
3,CC(C)(C)n1nnnc1SCC(=O)Nc1nn(-c2ccccc2)nc1C(N)=O,9.33%
4,CCOC(=O)COc1ccccc1-c1ccno1,2.76%
5,O=C(COC(=O)CN1C(=O)C2CC=CCC2C1=O)Nc1cc(C(F)(F)F)ccc1N1CCOCC1 (centres unmarked),-26.8%
6,O=C(/C=C/C(=O)N1CCc2ccccc2C1)N1CCc2ccccc2C1,-12.6%
7,COC(=O)C1=C(c2ccc(F)cc2OCc2ccccc2)C[C@@H]2CC[C@H]1N2C(=O)N1CCCC1,-29.4%
8,CCOc1ccccc1/C=C(\NC(=O)c1ccccc1)C(=O)NCCC(=O)O,5.8%
9,O=C(Nc1ccc(N2CCOCC2)cc1N1CCOCC1)c1cccs1,-1.89%
10,CCOc1ccc(NC(=O)CSc2ncc(-c3ccc(F)cc3)n2Cc2ccco2)cc1,-1.9%
11,Cc1ccc(Cl)cc1N(CC(=O)NC1CCCCC1)S(C)(=O)=O,13.4%
12,Cc1ccc(NC(=O)Cn2c(=O)n(CCCC(=O)NCc3ccco3)c(=O)c3ccccc32)cc1,-4.47%
13,O=C(NNc1ncnc2c1cnn2-c1cccc(Cl)c1)c1ccco1,11%
14,COc1ccc(N=C2C(=O)N3CCCc4cccc2c43)cc1,-13.1%
15,COc1ccc(N(C(=O)CCl)C(C(=O)NCCc2ccccc2)c2cccs2)cc1 (centres unmarked),-20.8%
16,CCOc1ccc(/C=N/n2nnnc2N)cc1OCC,13.8%
17,Cc1ccccc1CC(=O)Nc1sc(C(C)C)cc1C(=O)N1CCOCC1,-31.1%
18,COC(=O)[C@H](CCSC)NC(=O)Nc1ccc(OC)cc1OC,-1.35%
